This is one part of the list. The full chains were built here from the parent and the listed change. Inactive controls read about 0.05.
B1: TEV protease; numbered along this chain (parent)
chain: MGESLFKGPRDYNPISSSICHLTNESDGHTTSLYGIGFGPFIITNKHLFRRNNGTLVVQSLHGVFKVKDTTTLQQHLVDGRDMIIIRMPKDFPPFPQKLKFREPQREERICLVTTNFQTKSMSSMVSDTSCTFPSGDGIFWKHWIQTKDGQCGSPLVSTRDGFIVGIHSASNFTNTNNYFTSVPKNFMELLTNQEAQQWVSGWRLNADSVLWGGHKVFMVKPEEPFQPVKEATQL

Variants of: B1
Assay: raw area under fraction-flipped curve 0-4 h after induction (AUC4h, not background-subtracted), DNA-recorder readout of cleavage of the substrate (dimensionless); higher = more cleavage of the substrate by the protease variant
Conditions: temperature: 34 °C; time window: 0-4 h after rhamnose induction
Protocol: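 In vivo DNA recorder in E. coli TOP10(DE3) ΔrhaA at 34 °C. Each TEVp single-site mutant (parent TEVp 0) is paired with a single-site variant of the 7-mer TEVs (canonical ENLYFQ|S). The substrate sits between flexible linkers in a Bxb1-sfGFP-TEVs-SsrA fusion, so cleavage stabilises Bxb1 and speeds flipping of a recombination array, read by NGS. The value is the raw area under the fraction-flipped curve over 0-4 h after rhamnose induction (AUC4h), with ≥20 reads per time point. It is not background-subtracted; inactive controls average about 0.047.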
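Further: Bxb1 expression induced with 0.2% (w/v) L-rhamnose at OD600 near 0.5, cultures sampled hourly, flipped fraction per protease–substrate barcode pair counted by paired-end Illumina sequencing.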

Variant	area with substrate CNLYFQS	area with substrate DNLYFQS	area with substrate FNLYFQS	area with substrate HNLYFQS	area with substrate INLYFQS	area with substrate KNLYFQS	area with substrate QNLYFQS	area with substrate TNLYFQS	area with substrate VNLYFQS	area with substrate YNLYFQS	area with substrate LNLYFQS	area with substrate MNLYFQS	area with substrate PNLYFQS	area with substrate WNLYFQS	area with substrate NNLYFQS	area with substrate SNLYFQS	area with substrate GNLYFQS
MGESLFKGPRDYNPISSSICHLTNESDGHTTSLYGIGFGPFIITNKHLFRRNNGTRVVQSLHGVFKVKDTTTLQQHLVDGRDMIIIRMPKDFPPFPQKLKFREPQREERICLVTTNFQTKSMSSMVSDTSCTFPSGDGIFWKHWIQTKDGQCGSPLVSTRDGFIVGIHSASNFTNTNNYFTSVPKNFMELLTNQEAQQWVSGWRLNADSVLWGGHKVFMVKPEEPFQPVKEATQL [L56R]	0.0466	0.044	0.0435	0.0504	0.0475	0.0584	0.049	0.0493	0.047	0.0506	–	–	–	–	–	–	–
MGESLFKGPRDYNPISSSICHLTNESDGHTTSLYGIGFGPFIITNKHLFRRNNGTKVVQSLHGVFKVKDTTTLQQHLVDGRDMIIIRMPKDFPPFPQKLKFREPQREERICLVTTNFQTKSMSSMVSDTSCTFPSGDGIFWKHWIQTKDGQCGSPLVSTRDGFIVGIHSASNFTNTNNYFTSVPKNFMELLTNQEAQQWVSGWRLNADSVLWGGHKVFMVKPEEPFQPVKEATQL [L56K]	0.0466	0.0609	–	0.0707	–	–	–	0.0341	–	0.0478	0.0599	0.0447	0.0492	0.0378	–	–	–
MGESLFKGPRDYNPISSSICHLTNESDGHTTSLYGIGFGPFIITNKHLFRRNNGTFVVQSLHGVFKVKDTTTLQQHLVDGRDMIIIRMPKDFPPFPQKLKFREPQREERICLVTTNFQTKSMSSMVSDTSCTFPSGDGIFWKHWIQTKDGQCGSPLVSTRDGFIVGIHSASNFTNTNNYFTSVPKNFMELLTNQEAQQWVSGWRLNADSVLWGGHKVFMVKPEEPFQPVKEATQL [L56F]	0.0444	0.0722	0.0511	0.0708	0.0579	0.071	–	0.0602	0.0625	0.0582	0.0663	0.0632	0.0646	0.0563	0.0643	0.0654	–
MGESLFKGPRDYNPISSSICHLTNESDGHTTSLYGIGFGPFIITNKHLFRRNNGTHVVQSLHGVFKVKDTTTLQQHLVDGRDMIIIRMPKDFPPFPQKLKFREPQREERICLVTTNFQTKSMSSMVSDTSCTFPSGDGIFWKHWIQTKDGQCGSPLVSTRDGFIVGIHSASNFTNTNNYFTSVPKNFMELLTNQEAQQWVSGWRLNADSVLWGGHKVFMVKPEEPFQPVKEATQL [L56H]	0.0286	–	0.058	0.0402	0.0562	0.0462	–	0.0516	–	–	0.0555	0.0251	–	0.0624	–	0.0498	–
MGESLFKGPRDYNPISSSICHLTNESDGHTTSLYGIGFGPFIITNKGLFRRNNGTLVVQSLHGVFKVKDTTTLQQHLVDGRDMIIIRMPKDFPPFPQKLKFREPQREERICLVTTNFQTKSMSSMVSDTSCTFPSGDGIFWKHWIQTKDGQCGSPLVSTRDGFIVGIHSASNFTNTNNYFTSVPKNFMELLTNQEAQQWVSGWRLNADSVLWGGHKVFMVKPEEPFQPVKEATQL [H47G]	0.0486	0.0563	0.0578	0.0685	0.0648	0.0566	–	0.0542	–	0.0572	0.0666	0.0554	0.0589	0.0535	0.0564	0.062	–
MGESLFKGPRDYNPISSSICHLTNESDGHTTSLYGIGFGPFIITNKHLFRRNNGTLVVQSLHGHFKVKDTTTLQQHLVDGRDMIIIRMPKDFPPFPQKLKFREPQREERICLVTTNFQTKSMSSMVSDTSCTFPSGDGIFWKHWIQTKDGQCGSPLVSTRDGFIVGIHSASNFTNTNNYFTSVPKNFMELLTNQEAQQWVSGWRLNADSVLWGGHKVFMVKPEEPFQPVKEATQL [V64H]	0.0807	–	–	–	–	–	–	–	–	–	0.0632	–	–	–	–	–	–
MGESLFKGPRDYNPISSSICHLTNESDGHTTSLYGIGFGPFIITNKHLFRRNNGTLVVQSLHGIFKVKDTTTLQQHLVDGRDMIIIRMPKDFPPFPQKLKFREPQREERICLVTTNFQTKSMSSMVSDTSCTFPSGDGIFWKHWIQTKDGQCGSPLVSTRDGFIVGIHSASNFTNTNNYFTSVPKNFMELLTNQEAQQWVSGWRLNADSVLWGGHKVFMVKPEEPFQPVKEATQL [V64I]	0.0668	–	–	0.0664	–	–	–	0.0758	–	–	–	0.0607	0.051	0.0533	–	0.106	–
MGESLFKGPRDYNPISSSICHLTNESDGHTTSLYGIGFGPFIITNKHLFRRNNGTLVVQSLHGAFKVKDTTTLQQHLVDGRDMIIIRMPKDFPPFPQKLKFREPQREERICLVTTNFQTKSMSSMVSDTSCTFPSGDGIFWKHWIQTKDGQCGSPLVSTRDGFIVGIHSASNFTNTNNYFTSVPKNFMELLTNQEAQQWVSGWRLNADSVLWGGHKVFMVKPEEPFQPVKEATQL [V64A]	0.0312	–	–	0.0664	0.0739	0.07	–	0.0717	–	0.0643	0.0469	–	–	0.0604	–	–	–
MGESLFKGPRDYNPISSSICHLTNESDGHTTSLYGIGFGPFIITNKHLFRRNNGTLVVQSLHGDFKVKDTTTLQQHLVDGRDMIIIRMPKDFPPFPQKLKFREPQREERICLVTTNFQTKSMSSMVSDTSCTFPSGDGIFWKHWIQTKDGQCGSPLVSTRDGFIVGIHSASNFTNTNNYFTSVPKNFMELLTNQEAQQWVSGWRLNADSVLWGGHKVFMVKPEEPFQPVKEATQL [V64D]	0.0571	0.0703	0.0682	–	–	–	–	–	–	–	0.0504	0.0444	0.0868	0.0534	–	–	0.0672
MGESLFKGPRDYNPISSSICHLTNESDGHTTSLYGIGFGPFIITNKHLFRRNNGTLVVQSLHGMFKVKDTTTLQQHLVDGRDMIIIRMPKDFPPFPQKLKFREPQREERICLVTTNFQTKSMSSMVSDTSCTFPSGDGIFWKHWIQTKDGQCGSPLVSTRDGFIVGIHSASNFTNTNNYFTSVPKNFMELLTNQEAQQWVSGWRLNADSVLWGGHKVFMVKPEEPFQPVKEATQL [V64M]	0.0754	0.0869	0.0365	0.0629	0.067	–	0.0715	0.0775	0.0739	–	0.063	–	0.0415	0.0625	0.0669	0.0547	0.0571
MGESLFKGPRDYNPISSSICHLTNESDGHTTSLYGIGFGPFIIRNKHLFRRNNGTLVVQSLHGVFKVKDTTTLQQHLVDGRDMIIIRMPKDFPPFPQKLKFREPQREERICLVTTNFQTKSMSSMVSDTSCTFPSGDGIFWKHWIQTKDGQCGSPLVSTRDGFIVGIHSASNFTNTNNYFTSVPKNFMELLTNQEAQQWVSGWRLNADSVLWGGHKVFMVKPEEPFQPVKEATQL [T44R]	0.0567	0.0418	0.0471	0.0465	–	0.0511	0.0495	0.0476	0.051	0.0428	0.0477	0.0513	0.0328	0.0369	0.0369	–	0.0466

— the supplement of paper PMC12217912
